# Test results published in PubChem BioAssay AID504845 (National Center for Advancing Translational Sciences (NCATS), 2011).
# The campaign covered roughly 390,000 compounds. About 150 (0.038%) were called active. Inconclusive results, whose numbers are uncertain, are shown with a selection of clear calls. Calls come from the whole dose curve; as a rule, active = well fitted inhibition curve with a large enough effect; inconclusive = small, poorly fitted or top-dose-only effect; inactive = no such curve, though single readings can be large or run the other way. A potency beside an inconclusive call is a rough fit, not a confirmed value.
# Molecular target: Regulator of G-protein signaling 4 (Homo sapiens) (UniProt P49798)
# Experiment: Inhibitors of Regulator of G Protein Signaling (RGS) 4: qHTS; note: nearly all actives have a fitted effect of over 75% in size
# Conditions: Transcreener GDP fluorescence polarization, RGS4-accelerated GTP hydrolysis; series mostly up to 114 µM; activity change, negative = inhibition: at the top concentration
# How it was run: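 MLSMR compounds (23 nl, pin-transferred) preincubated 10 min at room temperature with a 500nM (2x) first reagent, then RGS4 at 900nM (2x) plus Transcreener GDP mix added; fluorescence polarization (620/688 nm) read before and after 90 min at 30 °C.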
# % is set by controls: 0 for no effect and ±100 for the full control effect; potency is the fitted concentration of half-maximal effect; tags give direction and shape of the fitted curve.
# UniProt P49798, sequence (P49798 whole entry, looked up): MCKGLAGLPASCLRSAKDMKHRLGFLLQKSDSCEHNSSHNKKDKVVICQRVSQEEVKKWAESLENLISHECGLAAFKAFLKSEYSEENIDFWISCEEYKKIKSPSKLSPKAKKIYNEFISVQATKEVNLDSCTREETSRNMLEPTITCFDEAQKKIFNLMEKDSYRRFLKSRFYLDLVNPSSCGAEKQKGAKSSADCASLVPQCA
Compound,"activity change, negative = inhibition",Potency
CN1CCCN(C(=O)c2cc(-c3cccc4ccccc34)nc3ccccc23)CC1,inactive: -0.0887%,
COC(=O)Nc1ccc(SCC(=O)c2cccc([N+](=O)[O-])c2)cc1,inactive: -47%,
COc1cc(OC)c(-c2nn3c(-c4ccco4)nnc3s2)cc1OC,,"inconclusive: 89.1 µM [inhibitor, partial curve, poor fit]"
COc1ccc(C(=O)Oc2ccc(/C=N/Nc3ccc(Cl)c(C(=O)O)c3)cc2OC)cc1,inactive: -23.2%,
O=C(Nc1ccccc1OC(F)F)c1ccc(S(=O)(=O)N2CCCC2)cc1,,"inconclusive: 89.1 µM [inhibitor, single point]"
Cc1c(-c2cccc(NC(=O)Nc3ccc(Cl)cc3)c2)nc2ncccn12,,"inconclusive: 79.4 µM [inhibitor, single point]"
c1ccc(Cn2c(SCc3nc4ccccc4s3)nnc2-c2ccco2)cc1,,"inconclusive: 70.8 µM [inhibitor, partial curve, poor fit]"
Cc1ccc(C(=O)c2no[n+]([O-])c2C(=O)c2ccc(C)cc2)cc1,inactive: -31.5%,
CCCN1CCc2c(sc(NC(=O)c3ccc(S(=O)(=O)N(C)c4ccccc4)cc3)c2C(=O)NC)C1,inactive: -38.9%,
O=S(=O)(/N=C(\c1ccccc1)N1CCOCC1)c1ccc(Cl)cc1,,"inconclusive: 31.6 µM [inhibitor, full curve, poor fit]"
Cc1ccc(NC2=C/C(=N/S(=O)(=O)c3cccs3)c3ccccc3C2=O)cc1,inactive: -23.7%,
Cc1ccc(C(NC(=O)C(C)C)c2cc([N+](=O)[O-])c3cccnc3c2O)cc1 (stereo not drawn),inactive: -18.9%,
N/C(=N\OC(=O)c1ccc2c(c1)OCO2)c1cccc([N+](=O)[O-])c1,,"inconclusive: 89.1 µM [inhibitor, partial curve, poor fit]"
O=C(Nc1nc(-c2cccs2)cs1)C1=COCCO1,,"inconclusive: 44.7 µM [inhibitor, partial curve, poor fit]"
Cc1cccc(NC(=O)CN2C(=O)N/C(=C\c3ccccc3OCc3ccc(C(=O)O)cc3)C2=O)c1,inactive: -11.4%,
Cc1ccccc1C(=O)N1c2ccccc2OCC1C(C)(C)C (stereo not drawn),inactive: 6.09%,
CSc1nc(-c2ccco2)nn1C(=O)c1ccc(C)cc1,inactive: -17%,
Cc1ccc(CC(=O)NCc2ccc(Cl)cc2)cc1,,"inconclusive: 25.1 µM [inhibitor, full curve, poor fit]"
CCOC(=O)COc1ccc(C2NC(C(=O)O)CS2)cc1 (stereo not drawn),,"inconclusive: 89.1 µM [inhibitor, single point]"
CCOC(=O)c1ccc(N2C(=O)CC(N3CC(C)OC(C)C3)C2=O)cc1 (stereo not drawn),,"inconclusive: 89.1 µM [inhibitor, single point]"
Oc1ccc(Nc2nc(NCC3CCCO3)c3ccccc3n2)cc1 (stereo not drawn),inactive: 27.4%,
COc1ccc(/C=C/C(=O)NC(=S)NNC(=O)c2c(-c3ccccc3)noc2C)cc1,inactive: -26.6%,

Compound,"activity change, negative = inhibition",Potency
CCc1ccccc1NC(=S)N1CCNC(=O)C1CC(=O)OC (stereo not drawn),,"inconclusive: 100 µM [inhibitor, single point]"
Cc1cccc(NC(=O)CNC(=O)CCc2nc3sc4c(c3c(=O)[nH]2)CCCC4)c1C,inactive: -51.3%,
c1ccc2c(c1)OCC(c1nnc3sc(-c4cnccn4)nn13)O2 (stereo not drawn),inactive: -53.6%,
CCCNC(=O)CN1CCC(c2nc3ccccc3[nH]2)CC1,,"inconclusive: 50.1 µM [inhibitor, partial curve, poor fit]"
CCc1cc(C(=O)Nc2sc(C)c(CC)c2C#N)no1,,"inconclusive: 44.7 µM [inhibitor, partial curve, poor fit]"
O=C(N/N=C/C=C/c1ccco1)c1ccncc1,,"inconclusive: 89.1 µM [inhibitor, partial curve, poor fit]"
COc1cccc2c(C)nc(Nc3nc(CSc4nnc(C)s4)cc(=O)[nH]3)nc12,,"inconclusive: 79.4 µM [inhibitor, partial curve, poor fit]"
CCC(C)c1ccccc1NC(=O)CN(C)CCOc1ccc(Cl)cc1 (stereo not drawn),inactive: -24.7%,
COC(=O)CNc1nc(Cl)nc(Nc2ccc(Cl)cc2)n1,,"inconclusive: 35.5 µM [inhibitor, full curve, poor fit]"
CCOc1ccccc1N(C(=O)c1snc(C(N)=O)c1N)C(CC)C(=O)NC1CCCC1 (stereo not drawn),inactive: -18.1%,
CC(C)CSc1nc2c(c(=O)[nH]c(=O)n2C)n1CC(O)COc1cccc2ccccc12 (stereo not drawn),,"inconclusive: 100 µM [inhibitor, partial curve, poor fit]"
COc1ccc(CC2S/C(=C(\C#N)C(=O)NCc3ccco3)N(c3ccc(C)cc3)C2=O)cc1 (stereo not drawn),,"inconclusive: 39.8 µM [inhibitor, partial curve, poor fit]"
COc1ccc2oc(C(=O)OCC(=O)N(C)Cc3ccccc3)c(C)c2c1,inactive: -5.9%,
O=C(O)c1cccc(N2C(=O)C3CC=C(Cl)CC3C2=O)c1 (stereo not drawn),,"inconclusive: 50.1 µM [inhibitor, single point]"
O=C(CSc1nncc(=O)[nH]1)NCc1ccccc1,,"inconclusive: 89.1 µM [inhibitor, partial curve, poor fit]"
COc1ccc(NC(=O)c2c(C)oc3ccc(O)c(CN4CCN(Cc5ccccc5)CC4)c23)cc1Cl,inactive: 13.5%,
COc1ccc(/C=C2/C(=O)N(c3c(F)c(F)c(F)c(F)c3F)N=C2C)cc1,,"inconclusive: 56.2 µM [inhibitor, partial curve, poor fit]"
O=C(NCc1ccccc1)c1ccc2c(=O)[nH]c3c(C(=O)NCC4CCCO4)sc(=S)n3c2c1 (stereo not drawn),,"inconclusive: 28.2 µM [inhibitor, full curve, poor fit]"
CCOC(=O)C1=C(CSc2nc3c(cc2C#N)CN(C)CC3)OC(N)=C(C#N)C1c1ccc(F)cc1 (stereo not drawn),,"inconclusive: 89.1 µM [inhibitor, single point]"
CCCCC#Cc1nc(NC)c2ncn([C@@H]3O[C@H](CO)[C@@H](O)[C@H]3O)c2n1,,"inconclusive: 11.9 µM [inhibitor, partial curve]"
CCCc1cc(=O)[nH]c(Nc2ccc(N3CCCCC3)cc2)n1,,"inconclusive: 79.4 µM [inhibitor, partial curve, poor fit]"
